Assay results published in the supplement of paper PMC8728848.
The list shows a part of the results.

Legend:
Experiment in all cases: glycan array binding signal (z-score within array); higher = stronger binding
Conditions in all cases: glycan notation: IUPAC condensed, linker removed
[1] = target: Gal(b1-3)GlcNAc(b1-6)[Gal(b1-3)]GalNAc
How it was run: (§1)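 The binding signal is a Z-score computed within each array. Data were drawn from 3228 arrays in the Consortium for Functional Glycomics database, restricted to those with a known protein sequence. Scores were averaged over arrays of the same protein sequence at different concentrations or buffers, and over linkers, and negative values can be taken as non-binding.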

Gal(b1-3)GlcNAc6S = target: Gal(b1-3)GlcNAc6S
How it was run: as §1

[2] = target: Gal(b1-3)[Fuc(a1-4)]GlcNAc
How it was run: as §1

[3] = target: Gal(b1-3)[Fuc(a1-4)]GlcNAc(b1-2)Man
How it was run: as §1

[4] = target: Gal(b1-3)[Fuc(a1-4)]GlcNAc(b1-2)Man(a1-3)[Gal(b1-3)[Fuc(a1-4)]GlcNAc(b1-2)Man(a1-6)]Man(b1-4)GlcNAc(b1-4)[Fuc(a1-6)]GlcNAc
How it was run: as §1

[5] = target: Gal(b1-3)[Fuc(a1-4)]GlcNAc(b1-3)Gal(b1-3)[Fuc(a1-4)]GlcNAc
How it was run: as §1

[6] = target: Gal(b1-3)[Fuc(a1-4)]GlcNAc(b1-3)Gal(b1-4)[Fuc(a1-3)]GlcNAc
How it was run: as §1

[7] = target: Gal(b1-3)[Fuc(a1-4)]GlcNAc(b1-6)GalNAc
How it was run: as §1

[8] = target: Gal(b1-3)[GlcNAc(b1-6)]GalNAc
How it was run: as §1

[9] = target: Gal(b1-3)[Neu5Ac(a2-6)]GalNAc
How it was run: as §1

[10] = target: Gal(b1-3)[Neu5Ac(a2-6)]GlcNAc(b1-4)Gal(b1-4)Glc
How it was run: as §1

[11] = target: Gal(b1-3)[Neu5Ac(b2-6)]GalNAc
How it was run: as §1

Gal(b1-4)Gal = target: Gal(b1-4)Gal
How it was run: as §1

[12] = target: Gal(b1-4)GalNAc(a1-3)[Fuc(a1-2)]Gal(b1-4)GlcNAc
How it was run: as §1

[13] = target: Gal(b1-4)GalNAc(b1-3)[Fuc(a1-2)]Gal(b1-4)GlcNAc
How it was run: as §1

Gal(b1-4)Glc = target: Gal(b1-4)Glc
How it was run: as §1

Gal(b1-4)Glc6S = target: Gal(b1-4)Glc6S
How it was run: as §1

Gal(b1-4)GlcNAc = target: Gal(b1-4)GlcNAc
How it was run: as §1

[14] = target: Gal(b1-4)GlcNAc(a1-6)Gal(b1-4)GlcNAc
How it was run: as §1

Gal(b1-4)GlcNAc(b1-2)Man = target: Gal(b1-4)GlcNAc(b1-2)Man
How it was run: as §1

[15] = target: Gal(b1-4)GlcNAc(b1-2)Man(a1-3)Man(b1-4)GlcNAc(b1-4)GlcNAc
How it was run: as §1

[16] = target: Gal(b1-4)GlcNAc(b1-2)Man(a1-3)[Gal(b1-4)GlcNAc(b1-2)Man(a1-6)]Man(b1-4)GlcNAc(b1-4)GlcNAc
How it was run: as §1

[17] = target: Gal(b1-4)GlcNAc(b1-2)Man(a1-3)[Gal(b1-4)GlcNAc(b1-2)Man(a1-6)]Man(b1-4)GlcNAc(b1-4)[Fuc(a1-6)]GlcNAc
How it was run: as §1

[18] = target: Gal(b1-4)GlcNAc(b1-2)Man(a1-3)[Gal(b1-4)GlcNAc(b1-2)Man(a1-6)][Gal(b1-4)GlcNAc(b1-4)]Man(b1-4)GlcNAc(b1-4)[Fuc(a1-6)]GlcNAc
How it was run: as §1

[19] = target: Gal(b1-4)GlcNAc(b1-2)Man(a1-3)[Gal(b1-4)GlcNAc(b1-2)Man(a1-6)][GlcNAc(b1-4)]Man(b1-4)GlcNAc(b1-4)[Fuc(a1-6)]GlcNAc
How it was run: as §1

[20] = target: Gal(b1-4)GlcNAc(b1-2)Man(a1-3)[GlcNAc(b1-2)Man(a1-6)]Man(b1-4)GlcNAc(b1-4)GlcNAc
How it was run: as §1

[21] = target: Gal(b1-4)GlcNAc(b1-2)Man(a1-3)[GlcNAc(b1-4)][Gal(b1-4)GlcNAc(b1-2)Man(a1-6)]Man(b1-4)GlcNAc(b1-4)GlcNAc
How it was run: as §1

[22] = target: Gal(b1-4)GlcNAc(b1-2)Man(a1-3)[Man(a1-6)]Man(b1-4)GlcNAc(b1-4)GlcNAc
How it was run: as §1

[23] = target: Gal(b1-4)GlcNAc(b1-2)Man(a1-6)Man(b1-4)GlcNAc(b1-4)GlcNAc
How it was run: as §1

[24] = target: Gal(b1-4)GlcNAc(b1-2)Man(a1-6)[GlcNAc(b1-2)Man(a1-3)]Man(b1-4)GlcNAc(b1-4)GlcNAc
How it was run: as §1

[25] = target: Gal(b1-4)GlcNAc(b1-2)Man(a1-6)[Man(a1-3)]Man(b1-4)GlcNAc(b1-4)GlcNAc
How it was run: as §1

[26] = target: Gal(b1-4)GlcNAc(b1-2)[Gal(b1-4)GlcNAc(b1-4)]Man(a1-3)[Gal(b1-4)GlcNAc(b1-2)Man(a1-6)]Man(b1-4)GlcNAc(b1-4)GlcNAc
How it was run: as §1

[27] = target: Gal(b1-4)GlcNAc(b1-2)[Gal(b1-4)GlcNAc(b1-4)]Man(a1-3)[Gal(b1-4)GlcNAc(b1-2)[Gal(b1-4)GlcNAc(b1-6)]Man(a1-6)]Man(b1-4)GlcNAc(b1-4)GlcNAc
How it was run: as §1

[28] = target: Gal(b1-4)GlcNAc(b1-2)[Gal(b1-4)GlcNAc(b1-4)]Man(a1-3)[GlcNAc(b1-4)][Gal(b1-4)GlcNAc(b1-2)Man(a1-6)]Man(b1-4)GlcNAc(b1-4)GlcNAc
How it was run: as §1

[29] = target: Gal(b1-4)GlcNAc(b1-2)[Gal(b1-4)GlcNAc(b1-4)]Man(a1-3)[GlcNAc(b1-4)][Gal(b1-4)GlcNAc(b1-2)[Gal(b1-4)GlcNAc(b1-6)]Man(a1-6)]Man(b1-4)GlcNAc(b1-4)GlcNAc
How it was run: as §1

[30] = target: Gal(b1-4)GlcNAc(b1-2)[Gal(b1-4)GlcNAc(b1-6)]Man(a1-6)[Gal(b1-4)GlcNAc(b1-2)Man(a1-3)]Man(b1-4)GlcNAc(b1-4)GlcNAc
How it was run: as §1

[31] = target: Gal(b1-4)GlcNAc(b1-2)[Gal(b1-4)GlcNAc(b1-6)]Man(a1-6)[Gal(b1-4)GlcNAc(b1-2)Man(a1-3)]Man(b1-4)GlcNAc(b1-4)[Fuc(a1-6)]GlcNAc
How it was run: as §1

[32] = target: Gal(b1-4)GlcNAc(b1-2)[Gal(b1-4)GlcNAc(b1-6)]Man(a1-6)[GlcNAc(b1-4)][Gal(b1-4)GlcNAc(b1-2)Man(a1-3)]Man(b1-4)GlcNAc(b1-4)GlcNAc
How it was run: as §1

[33] = target: Gal(b1-4)GlcNAc(b1-2)[Gal(b1-4)GlcNAc(b1-6)]Man(a1-6)[GlcNAc(b1-4)][Gal(b1-4)GlcNAc(b1-2)[Gal(b1-4)GlcNAc(b1-4)]Man(a1-3)]Man(b1-4)GlcNAc(b1-4)[Fuc(a1-6)]GlcNAc
How it was run: as §1

[34] = target: Gal(b1-4)GlcNAc(b1-3)Gal(b1-3)GalNAc
How it was run: as §1

[35] = target: Gal(b1-4)GlcNAc(b1-3)Gal(b1-3)GlcNAc
How it was run: as §1

[36] = target: Gal(b1-4)GlcNAc(b1-3)Gal(b1-4)Glc
How it was run: as §1

[37] = target: Gal(b1-4)GlcNAc(b1-3)Gal(b1-4)GlcNAc
How it was run: as §1

[38] = target: Gal(b1-4)GlcNAc(b1-3)Gal(b1-4)GlcNAc(b1-2)Man(a1-3)[Gal(b1-4)GlcNAc(b1-3)Gal(b1-4)GlcNAc(b1-2)Man(a1-6)]Man(b1-4)GlcNAc(b1-4)GlcNAc
How it was run: as §1

[39] = target: Gal(b1-4)GlcNAc(b1-3)Gal(b1-4)GlcNAc(b1-2)Man(a1-3)[Gal(b1-4)GlcNAc(b1-3)Gal(b1-4)GlcNAc(b1-2)Man(a1-6)]Man(b1-4)GlcNAc(b1-4)[Fuc(a1-6)]GlcNAc
How it was run: as §1

B1: CBM40 CPF071 (Clostridium perfringens) (protein)
chain: MAHHHHHHVGTGSNDDDDKSPDPMLSSLGEYKDINLESSNASNITYDLEKYKNLDEGTIVVRFNSKDSKIQSLLGISNSKTKNGYFNFYVTNSRVGFELRNQKNEGNTQNGTENLVHMYKDVALNDGDNTVALKIEKNKGYKLFLNGKMIKEVKDTNTKFLNNIENLDSAFIGKTNRYGQSNEYNFKGNIGFMNIYNEPLGDDYLLSKTGETK
- glycan array binding signal (z-score) [1]: 0.01
- glycan array binding signal (z-score) (Gal(b1-3)GlcNAc6S): -0.221
- glycan array binding signal (z-score) [2]: -0.098
- glycan array binding signal (z-score) [3]: -0.329
- glycan array binding signal (z-score) [4]: -0.395
- glycan array binding signal (z-score) [5]: -0.216
- glycan array binding signal (z-score) [6]: -0.385
- glycan array binding signal (z-score) [7]: -0.346
- glycan array binding signal (z-score) [8]: 0.093
- glycan array binding signal (z-score) [9]: -0.306
- glycan array binding signal (z-score) [10]: -0.087
- glycan array binding signal (z-score) [11]: -0.355
- glycan array binding signal (z-score) (Gal(b1-4)Gal): -0.26
- glycan array binding signal (z-score) [12]: -0.293
- glycan array binding signal (z-score) [13]: -0.434
- glycan array binding signal (z-score) (Gal(b1-4)Glc): -0.251
- glycan array binding signal (z-score) (Gal(b1-4)Glc6S): -0.232
- glycan array binding signal (z-score) (Gal(b1-4)GlcNAc): -0.105
- glycan array binding signal (z-score) [14]: -0.095
- glycan array binding signal (z-score) (Gal(b1-4)GlcNAc(b1-2)Man): -0.555
- glycan array binding signal (z-score) [15]: -0.163
- glycan array binding signal (z-score) [16]: -0.411
- glycan array binding signal (z-score) [17]: 0.022
- glycan array binding signal (z-score) [18]: 0.079
- glycan array binding signal (z-score) [19]: -0.197
- glycan array binding signal (z-score) [20]: -0.427
- glycan array binding signal (z-score) [21]: -0.44
- glycan array binding signal (z-score) [22]: -0.402
- glycan array binding signal (z-score) [23]: -0.326
- glycan array binding signal (z-score) [24]: -0.515
- glycan array binding signal (z-score) [25]: -0.615
- glycan array binding signal (z-score) [26]: -0.479
- glycan array binding signal (z-score) [27]: -0.075
- glycan array binding signal (z-score) [28]: -0.27
- glycan array binding signal (z-score) [29]: -0.655
- glycan array binding signal (z-score) [30]: -0.455
- glycan array binding signal (z-score) [31]: -0.351
- glycan array binding signal (z-score) [32]: -0.173
- glycan array binding signal (z-score) [33]: -0.343
- glycan array binding signal (z-score) [34]: 0.018
- glycan array binding signal (z-score) [35]: -0.363
- glycan array binding signal (z-score) [36]: -0.338
- glycan array binding signal (z-score) [37]: 0.186
- glycan array binding signal (z-score) [38]: -0.391
- glycan array binding signal (z-score) [39]: -0.279
